The record followed here is ChEMBL document CHEMBL4888484, “Replenishing the malaria drug discovery pipeline: Screening and hit evaluation of the MMV Hit Generation Library 1 (HGL1) against asexual blood stage Plasmodium falciparum ,using a nano luciferase reporter read-out” (2022).

Out of some 150,000 compounds screened, about 540 (0.36%) showed an effect of 50% or more. This is one part of the list.

For this assay, the system named is Plasmodium falciparum. The assay can be described thus: Primary screen in NF54 nanoGlo assay, in single point, at 2uM, 72h; a lower Z score goes with more inhibition. It is filed as functional, Erythrocyte. Conditions: timepoint 72 hour.
One may read the % Inhibition as the relative decrease from the control value, in per cent. Consider `O=C(Nc1ccc2c(c1)CCC2)c1ccc(O)nc1`, for which the “% Inhibition” value is reported as -3% and the Z score was 0.61.
Turning to `O=C(NC1CCN2CCCCC12)c1csc(-c2ccco2)n1` (centres undefined), the “% Inhibition” value is recorded as -2% and the Z score was 0.37.
The matching figures for `CN(CCCc1nc2ccccc2[nH]1)C(=O)[C@@H]1COCCN1C1CCCC1`: -6% and 0.93.
The corresponding values for `CCN(CC)S(=O)(=O)c1ccc(NC(=O)[C@H]2CCCN(C)C2)cc1` are 4% and -0.56.
The corresponding values for `CC1=NO[C@H](C(=O)NCC2(Cn3ccnc3C)CC2)C1` are -4% and 0.75.
As for `O=C(Nc1ccc(F)cc1)N[C@H](c1ccccc1)c1cccs1`, the “% Inhibition” value is -11% and the Z score was found to be 0.89.
The matching figures for `COc1cccc(NC(=O)N[C@H]2[C@H](O)[C@@H](Oc3ccccc3)[C@@H]3OC[C@H]2O3)c1`: 4% and -0.65.
The matching figures for `CC(C)CN(CC1CN(Cc2cccc(C(F)(F)F)c2)CC1c1cccc(C(F)(F)F)c1)C(=O)c1ccccc1` (centres undefined): -8% and 1.01.
The corresponding values for `Cc1cc(NC(=O)NCCc2nnc(-c3ccco3)[nH]2)nn1C(C)C` are 2% and -0.31.
With `Cc1cc(CNCCn2cccn2)no1`, the “% Inhibition” value is listed as -4% and the Z score turned out to be 0.39.
The matching figures for `Cc1ccc(NC(=O)c2ccc3c(c2)S(=O)(=O)N=CN3CCc2ccccc2)cc1`: -6% and 1.05.
The corresponding values for `CC[C@H](C)N(CCNC(=O)Cn1nc(-c2ccccc2)c2cc(Cl)ccc21)C1CCCCC1` are -7% and 1.31.
The corresponding values for `COc1cc(C)ccc1OCc1nc(C(=O)NC2Cc3ccccc3C2)co1` are -10% and 1.91.
For `Cc1ccn2nc(C(=O)NCC[C@H]3CCCOC3)cc2c1`, the “% Inhibition” value is given as -10% and the Z score is recorded as 1.4.
`CC12CCC3C[C@@]1(C(=O)NCC(F)(F)F)OC[C@@]32C`: the “% Inhibition” value is recorded as 3% and the Z score is given as -0.33.
The matching figures for `CC(C)n1cc(C2=CCCN(c3nc(C4CCCCC4)ns3)CC2)nn1`: 33% and -3.71.
The corresponding values for `COCCN(CC(=O)N(Cc1ccco1)Cc1cccn1C)C(=O)c1cc(Cl)cc(Cl)c1` are -13% and 2.29.
The matching figures for `COc1cc(-c2cc(CN(C[C@H]3CCCO3)C(=O)Nc3ccccc3C)no2)cc(OC)c1OC`: -2% and 0.37.
`Cc1cccc(-c2noc([C@]3(C(C)C)CNC(=O)C3)n2)c1F`: the “% Inhibition” value is -11% and the Z score is given as 1.59.
As for `COc1ccc2oc(CN[C@@H](C)CN3CCOCC3)nc2c1`, the “% Inhibition” value is -8% and the Z score came out at 1.15.
For the compound `Nc1nc(CCC(=O)N[C@H]2CC(=O)N(CC3CCCCC3)C2)cs1`, the “% Inhibition” value was determined as 8% and the Z score is listed as -1.18.
The corresponding values for `C[C@H](NC(=O)c1nc(COc2ccc(CC(N)=O)cc2)no1)c1ccccc1` are -6% and 0.74.
Consider `CN(C(=O)c1cccc(NC(=O)[C@H]2[C@@H]3C[C@@H]4[C@H]2C(=O)O[C@@H]4C3)c1)c1ccccc1Cl`, for which the “% Inhibition” value is -20% and the Z score is reported as 2.29.
Consider `O=C(CCc1cccc(Cl)c1)N1CCCN([C@H]2CCOC2)CC1`, for which the “% Inhibition” value is given as -14% and the Z score came to 2.38.
`CCc1nn(-c2ccc(F)cc2)c(Oc2cccc(C)c2)c1CN(C[C@H]1CCCO1)C(=O)NC(C)(C)C`: the “% Inhibition” value was 1% and the Z score is recorded as -0.14.
The matching figures for `CCN1C(=O)N[C@@H](Cc2cccc(Cl)c2)C1=O`: -19% and 2.
The matching figures for `Cc1cc(-c2ccncc2)nn1CCNS(=O)(=O)CCC(F)(F)F`: 11% and -1.4.
Regarding `CC[C@@H](c1ccncc1)N(C)C(=O)c1cc2n(n1)CCCC2`, the “% Inhibition” value is on record as -6% and the Z score is on record as 1.01.
The matching figures for `Nc1ccc(-c2nc3c(ccc4ccccc43)o2)cc1`: -11% and 1.56.
Regarding `CN(CC(=O)NC(=O)NC1CCCCC1)Cc1cccc(Cl)c1Cl`, the “% Inhibition” value was determined as 6% and the Z score is reported as -0.83.
The matching figures for `CC(C)[C@H](Oc1ccccc1C#N)C(=O)NCCC(=O)OC1CCCCC1`: -3% and 0.48.
The corresponding values for `CC(Cc1ccc2ccccc2c1)NC(=O)COCC1CCCNC1` (centres undefined) are 0% and 0.
The matching figures for `CCc1nnc2c(S(=O)(=O)N(Cc3ccccc3F)c3cc(F)cc(F)c3)cccn12`: -2% and 0.2.
For `CCc1nc2ccc(Cl)cn2c1C(=O)Nc1cccc2c1CNC2=O`, the “% Inhibition” value is given as -1% and the Z score is on record as 0.19.
The corresponding values for `CN(C)CCCc1nc(C2CC2)nn1-c1ccc(C(F)(F)F)cc1` are -3% and 0.55.
As to `COc1ccc2c(c1)CCc1c(C(=O)Nc3ccc4sc(NC(C)=O)nc4c3)n[nH]c1-2`, the “% Inhibition” value is on record as 10% and the Z score is reported as -1.96.
The matching figures for `CCN1CCCC[C@@H]1CNc1cc(C)cc(F)c1S(N)(=O)=O`: -12% and 1.62.
The matching figures for `c1ccc(N2CCC(n3cncn3)CC2)nc1`: -12% and 2.26.
The matching figures for `CCN(C(=O)Cc1ccon1)c1ccccc1S(=O)(=O)CC`: -2% and 0.36.
`O=C(c1ccccc1)N1CCC([C@H]2c3[nH]cnc3CCN2Cc2cccnc2)CC1`: the “% Inhibition” value is reported as 0% and the Z score is -0.04.
The corresponding values for `CCc1nnc(CNC(=O)C2(c3ccccc3C)CCCC2)o1` are -11% and 1.58.
The corresponding values for `CCN(CC)C(=O)C[C@@H]1CCNC[C@@H]1Cc1cc(-c2ccccc2)on1` are 26% and -2.98.
With `CC(C)CC(CC(C)C)NC(=O)CCn1cncn1`, the “% Inhibition” value came to 0% and the Z score is reported as 0.01.
As to `Cc1cc(N2C(=O)C3CCC(c4ccccc4)CC3C2=O)cc(C)c1Br` (centres undefined), the “% Inhibition” value is listed as -2% and the Z score was found to be 0.27.
The corresponding values for `CC(=O)Nc1ccc(S(=O)(=O)N2CC[C@H]2c2ccc(Cl)cc2)cc1` are -8% and 1.58.
The matching figures for `CNC(=O)CN(C)C(=O)[C@@H]1CCCn2c(-c3ccccc3)cnc21`: 9% and -1.13.
The corresponding values for `Cc1nc2ccc(NCC(=O)NCC(F)(F)F)nn2n1` are 2% and -0.38.
As for `COc1ccc(CCNC(=O)[C@H]2CCCN(S(=O)(=O)N3CCC(C)CC3)C2)cc1OC`, the “% Inhibition” value is -2% and the Z score is listed as 0.35.
Take `COc1ccc(S(=O)(=O)N2CCOCC2)cc1C(=O)Nc1ccc2c(c1)CCC2`: the “% Inhibition” value is -7% and the Z score is recorded as 0.99.
The corresponding values for `O=C(NCC1CCN(C(=O)c2cc(=O)n(-c3ccccc3)[nH]2)CC1)[C@@H]1CCCO1` are -9% and 1.14.
The matching figures for `COC1CCN([C@H]2CCC[C@H]2N(C)C(=O)Nc2ccc(Cn3ccnc3)cn2)C1` (some centres undefined): 10% and -1.11.
The matching figures for `O=C(COCc1ccccc1Cl)Nc1ccc(-n2cc[nH]c2=O)cc1`: -12% and 2.25.
Consider `CCn1nc(C)c2c(C(=O)N3c4ccccc4C[C@@H]3C)cc(-c3ccc(C)cc3)nc21`, for which the “% Inhibition” value turned out to be 32% and the Z score is -3.58.
The matching figures for `CC(C)c1cc(CN(C)CCn2cc[nH]c2=O)on1`: -7% and 0.67.
The matching figures for `c1cc2nnnn2nc1N(CC1CC1)C1CCCCC1`: -12% and 1.66.
On to `COc1ccc(-c2cc3c(=O)n(C[C@H](O)c4ccc(C(C)C)cc4)ccn3n2)cc1`, for which the “% Inhibition” value was -13% and the Z score is given as 1.51.
With `CC(=O)c1csc(NC(=O)CCN2CCCS2(=O)=O)n1`, the “% Inhibition” value is 4% and the Z score is listed as -0.56.
The matching figures for `Cn1nccc1CN1CC2CCC1(CNC(=O)OC(C)(C)C)CC2`: 3% and -0.38.
As for `C[C@H](OC(=O)C1(Cc2nc3ccccc3s2)CCCC1)C(=O)NC(N)=O`, the “% Inhibition” value is -5% and the Z score was determined as 0.71.
The matching figures for `O=C(Nc1ccc(F)cc1)N[C@H]1[C@H](O)[C@@H](Oc2ccccc2)[C@@H]2OC[C@H]1O2`: 31% and -3.47.
The corresponding values for `Cc1ccc(-c2ccc(C(=O)N3CCCN(S(C)(=O)=O)CC3)cc2)nn1` are -5% and 0.96.
The matching figures for `Cn1c(NCc2cn(-c3cccc(Cl)c3Cl)nn2)nc2ccc(C#N)cc21`: 5% and -0.51.
As for `CS(=O)(=O)NCCn1cnc(C2CCCC2)cc1=O`, the “% Inhibition” value is listed as -8% and the Z score was determined as 1.5.
The matching figures for `O=C(Nc1ccc2c(c1)CCC2)c1ccco1`: -12% and 0.98.
The matching figures for `Cn1ccnc1CN[C@@]1(C)CCCc2ccccc21`: 11% and -1.27.
The matching figures for `c1cncc(NCCCNc2ccc3cc[nH]c3n2)c1`: -13% and 1.64.
As to `COc1ccsc1[C@H](C)NCc1ccc(OCC2CC2)nc1`, the “% Inhibition” value was found to be 0% and the Z score is 0.04.
The matching figures for `CCC(=O)N1CC[C@H](C(=O)Nc2nc(-c3ccc4c(c3)CCCC4)cs2)C1`: 3% and -0.46.
On to `CCc1ccc(C(=O)N(CC(=O)O)CC(C)C)o1`, for which the “% Inhibition” value came out at 0% and the Z score turned out to be 0.01.
The corresponding values for `CCN(CC)S(=O)(=O)c1cc(C(=O)Nc2cc(C)ccn2)n(C)c1` are 11% and -1.33.
The corresponding values for `CC(NCC(=O)NC(=O)NC1CC1)C(C)c1ccccc1` (centres undefined) are -10% and 1.64.
The matching figures for `O=C(Cn1cc(N[C@H]2CCc3ccccc3C2)cn1)N1CCOCC1`: -2% and 0.24.
For `COc1cccc(-c2nc(COc3cc(-c4ccccc4)c4c(C)nn(C)c4n3)c(C)o2)c1OC`, the “% Inhibition” value is listed as -7% and the Z score is 1.29.
The matching figures for `CCC1CCC(NC(=O)c2ccc3c(c2)OCCO3)CC1` (centres undefined): -13% and 1.23.
The matching figures for `CN(C)Cc1cccc(C(=O)N(Cc2cccnc2)C2CCCCC2)c1`: -2% and 0.3.
The matching figures for `Cc1cnn(-c2ccncc2NC(=O)C2CCCOC2C)c1` (centres undefined): 2% and -0.24.
As for `O=C(Nc1cccc(F)c1)c1coc(CN2CCN(Cc3ccc(F)cc3F)CC2)n1`, the “% Inhibition” value is -9% and the Z score is recorded as 1.24.
Regarding `Cc1ccc(C#N)c(NC(=O)c2nc(-c3ccccc3)n(-c3ccccc3)n2)n1`, the “% Inhibition” value is -7% and the Z score is 0.77.
The corresponding values for `O=C(NCCCn1cccn1)C1CCN(c2nnc3ccccn23)CC1` are -5% and 0.59.
The corresponding values for `Cc1cccc(N2CCN(C(=O)c3cccc(Nc4nc5ccccc5n5cnnc45)c3)CC2)c1C` are 0% and 0.
The corresponding values for `O=C(c1ccco1)N(Cc1cccc(F)c1)c1ccccn1` are -5% and 0.75.
In the case of `Clc1ccccc1-c1cc(Cn2ccnc2-c2ccncc2)no1`, the “% Inhibition” value is listed as -7% and the Z score was 1.43.
